Reference: PMC11995724, “Antibiotic target discovery by integrated phenotypic and activity-based profiling of electrophilic fragments” (Cell chemical biology, 2025)
Among all 3,200 compounds or so, about 110 (3.4%) showed an effect of 50% or more. This is one part of the list.

The compounds below were run on T1, V. cholerae SAD30. Settings: relative growth, OD600, LB; 25 µM; inhibitor.
T1 construct: SAD30
Design: species or system S. aureus MSSA476 (TSB) or V. cholerae SAD30 (LB); 384-well bacterial growth screen at 25 uM, OD600 relative to DMSO control

SMILES | % of control remaining
N#CC(=Cc1sc2ccccc2c1Cl)C(=O)Nc1nccs1 [9-F15, 3-(3-chloro-1-benzothiophen-2-yl)-2-cyano-N-(1,3-thiazol-2-yl)prop-2-enamide] | 76.0707%
C=CC(=O)Nc1nc2c(s1)-c1cc(OC)ccc1CC2 [1-J21, N-{8-methoxy-4H,5H-naphtho[2,1-d][1,3]thiazol-2-yl}prop-2-enamide] | 88.7892%
C=CC(=O)N1CCCC(Cc2noc(C)n2)C1 (stereo not drawn) [1-L20, 1-{3-[(5-methyl-1,2,4-oxadiazol-3-yl)methyl]piperidin-1-yl}prop-2-en-1-one] | 89.5486%
Cc1ccc2nc(-c3ccc(NC(=O)CCl)cc3)sc2c1 [6-I05, 2-chloro-N-[4-(6-methyl-1,3-benzothiazol-2-yl)phenyl]acetamide] | 96.9191%
COc1ccc(Cl)cc1CNC(=O)CCl [6-A16, 2-chloro-N-[(5-chloro-2-methoxyphenyl)methyl]acetamide] | 95.2507%
N#CC(=Cc1cccc([N+](=O)[O-])c1)C(=O)NCc1ccc(Cl)cc1 [8-F16, N-[(4-chlorophenyl)methyl]-2-cyano-3-(3-nitrophenyl)prop-2-enamide] | 65.8736%
O=C(CCl)N1C2CCC1c1ccccc12 [5-M11, 1-{11-azatricyclo[6.2.1.0,2,7]undeca-2,4,6-trien-11-yl}-2-chloroethan-1-one] | 91.2893%
O=C(CCl)Nc1ccccc1C(=O)Nc1ccc(F)cc1 [6-D12, 2-(2-chloroacetamido)-N-(4-fluorophenyl)benzamide] | 87.9704%
C=CC(=O)N1CCC(C(=O)NC2CCOC3(CCSCC3)C2)CC1 (stereo not drawn) [2-B12, N-{1-oxa-9-thiaspiro[5.5]undecan-4-yl}-1-(prop-2-enoyl)piperidine-4-carboxamide] | 92.6662%
Cc1ccc2[nH]c3c(c2c1)CCCC3N(C)C(=O)CCl (stereo not drawn) [6-H07, 2-chloro-N-methyl-N-(6-methyl-2,3,4,9-tetrahydro-1H-carbazol-1-yl)acetamide] | 96.9191%
COc1ccc(C=C(C#N)C(=O)Nc2ccccc2Cl)cc1O [8-C21, N-(2-chlorophenyl)-2-cyano-3-(3-hydroxy-4-methoxyphenyl)prop-2-enamide] | 80.4215%
CCCc1cc(NC(=O)CCl)n(-c2ccccc2)n1 [4-M03, 2-chloro-N-(1-phenyl-3-propyl-1H-pyrazol-5-yl)acetamide] | 103.17%
